Assay results reported in article PMC4336329 (PLoS ONE, 2015).
The campaign covered roughly 310,000 compounds. About 14,000 (4.5%) showed an effect of 50% or more. The effect is printed as a negative number. The list shows a part of the results.

Target: human ether-à-go-go-related gene (hERG) potassium channel (human, UniProt Q12809)
Test: primary screen, population patch clamp on CHO cells stably expressing hERG
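Further: peak tail current of the secondary pulse compared with the same well before compound.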

Chain of human ether-à-go-go-related gene (hERG) potassium channel (Q12809 whole entry, looked up): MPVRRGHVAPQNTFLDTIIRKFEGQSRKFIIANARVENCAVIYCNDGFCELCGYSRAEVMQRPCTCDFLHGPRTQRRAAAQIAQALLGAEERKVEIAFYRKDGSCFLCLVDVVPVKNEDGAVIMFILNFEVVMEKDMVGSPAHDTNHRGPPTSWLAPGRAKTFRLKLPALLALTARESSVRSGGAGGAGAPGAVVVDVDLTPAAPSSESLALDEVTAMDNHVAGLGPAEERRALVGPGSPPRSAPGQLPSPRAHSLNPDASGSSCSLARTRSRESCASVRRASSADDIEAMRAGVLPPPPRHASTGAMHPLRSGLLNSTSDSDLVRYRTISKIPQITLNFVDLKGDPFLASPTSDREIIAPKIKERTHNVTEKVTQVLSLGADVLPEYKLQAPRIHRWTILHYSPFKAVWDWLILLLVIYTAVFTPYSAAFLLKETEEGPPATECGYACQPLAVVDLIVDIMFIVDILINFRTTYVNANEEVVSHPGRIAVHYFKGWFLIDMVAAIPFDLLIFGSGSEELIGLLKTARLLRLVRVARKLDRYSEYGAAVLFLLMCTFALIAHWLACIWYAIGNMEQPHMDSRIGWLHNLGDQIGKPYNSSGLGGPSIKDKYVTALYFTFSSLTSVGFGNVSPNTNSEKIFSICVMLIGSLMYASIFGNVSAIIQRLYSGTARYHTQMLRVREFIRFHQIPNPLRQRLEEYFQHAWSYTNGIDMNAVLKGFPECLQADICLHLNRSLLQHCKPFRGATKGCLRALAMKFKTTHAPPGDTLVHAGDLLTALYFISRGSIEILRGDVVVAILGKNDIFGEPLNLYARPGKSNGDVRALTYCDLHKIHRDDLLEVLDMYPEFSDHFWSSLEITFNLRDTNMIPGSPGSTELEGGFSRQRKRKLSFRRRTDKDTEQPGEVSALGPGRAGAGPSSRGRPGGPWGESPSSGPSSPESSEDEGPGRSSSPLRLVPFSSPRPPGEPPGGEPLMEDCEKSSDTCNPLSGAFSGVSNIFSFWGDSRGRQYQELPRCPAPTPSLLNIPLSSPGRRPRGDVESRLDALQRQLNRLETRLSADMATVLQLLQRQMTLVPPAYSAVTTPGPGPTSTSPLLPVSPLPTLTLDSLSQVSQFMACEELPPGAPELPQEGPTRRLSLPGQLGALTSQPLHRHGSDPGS

Structure (SMILES) | hERG current change (%, negative = inhibition) at 10uM
O=C(C/C=N/OCc1ccccc1F)c1cnc(-c2ccc(Cl)cc2)s1 | 16.5%
O=S(=O)(CCc1nnc(-c2ccccc2)o1)c1ccc2ccccc2c1 | 3.03%
O=C(NCC(=O)N1CCCCCC1)c1ccc(OC(F)F)cc1 | -11.3%
Cc1cc(C)cc(NC(=S)N2CCC(NC(=O)c3ccco3)CC2)c1 | 7.82%
CCC(=NCc1cccnc1)c1c(O)n(-c2ccc(C)cc2)c(=O)[nH]c1=O | -8.04%
O=C(NNS(=O)(=O)c1ccc(Cl)cc1)c1cc(-c2ccccc2)nc2ccccc12 | -0.297%
COc1ccccc1N1CCN(CCCOc2ccc(F)cc2)CC1 | -71.8%
Cc1ccc(C(C(=O)NC(C)(C)C)N(Cc2cccnc2)C(=O)C(=O)NC2CCCCC2)o1 (stereo not shown) | 8.62%
Cc1ccc(C(=O)C2C(c3cccs3)NC(=O)NC2(O)C(F)(F)F)cc1 (stereo not shown) | -2.25%
Cc1ccc(C(=O)OCC(=O)c2c[nH]c3ccccc23)cc1S(=O)(=O)N1CCCCC1 | -1.63%
Cc1ccc(C)c(OCCC(=O)OCC(=O)N2CCN(c3ccccc3)CC2)c1 | -19%
CC(C)N1CCC(N2CCN(CCCn3cccn3)CC2CCO)CC1 (stereo not shown) | -28%
NC(=O)c1ccc[n+](CC(=O)c2ccc(F)cc2)c1.[Br-] | 14.5%
Brc1ccc(OCc2ccccc2)c(CNCC2CCCO2)c1.Cl (stereo not shown) | -50%
COC(=O)c1cccc(S(=O)(=O)N2CCOCC2)c1 | 6.61%
CC(OC(=O)CCCc1nc2ccccc2s1)C(N)=O (stereo not shown) | -4.81%
CCc1noc(C)c1C(=O)Nc1nc(-c2ccc(Cl)cc2Cl)c(C)s1 | 6.75%
CCOP(=O)(OCC)C(Nc1ccc(C)cc1)c1ccco1 (stereo not shown) | 12.1%
COc1ccc(/C(C)=N/N=C(N)N)c(O)c1 | -1.13%
O=C(/C=C/c1ccco1)Nc1ccccc1N1CCCCC1 | 15.3%
S=c1nc(C2CC2)n(-c2ccccc2)[nH]1 | 7.34%
Cl.c1ccc2c(c1)CCCC2C1=NCCN1 (stereo not shown) | -10%
CCCCn1c(CNC(C)=O)nc2ccccc21 | 3.5%

Structure (SMILES) | hERG current change (%, negative = inhibition) at 10uM
CCn1c(SCC(=O)Nc2ccccc2C)nnc1-c1ccccc1O | 1.99%
Cc1ccccc1OCC(=O)Nc1ccc(C(N)=O)cc1 | 1.77%
Cc1ccc(CN(C)S(=O)(=O)c2c(C)noc2/C=C/N(C)C)cc1 | 15.6%
COc1ccc(NC(=O)c2cc(S(=O)(=O)N3CCCC3)oc2C)cc1 | 18.8%
CCOC(=O)N1CCC(Nc2c([N+](=O)[O-])cc(C(=O)O)cc2[N+](=O)[O-])CC1 | 20.4%
O=c1cc(CSc2ccccc2)[nH]c(=S)[nH]1 | 19.4%
COc1ccc(S(=O)(=O)NC(C)C(=O)NC2CC2)cc1C (stereo not shown) | -0.0326%
O=C(CN1C(=O)/C(=C\c2ccccc2Cl)Oc2ccccc21)NCc1cccnc1 | 10.3%
COc1ccc(OC)c(-c2csc(NC(=O)C3=NNC(=O)CC3)n2)c1 | 8.91%
O=C1CCCC(=O)C1CS(=O)(=O)c1ccccc1 | 8.6%
O=c1c2ccccc2nc(-c2ccccc2)n1O | 4.42%
CCC1(CC)NC(=O)N(CC(=O)OCC(=O)Nc2ccccc2OC(F)F)C1=O | 10.6%
CCC(=O)Nc1ccc(C(=O)Nc2cccc(C)n2)cc1 | 16.7%
COc1ccc(N2C(=O)CC(N3CCOCC3)C2=O)cc1 (stereo not shown) | 12.7%
COC(OC)c1ccc(C#N)c(SCc2ccccc2)n1 | 4.03%
O=C(O)C1C2CCC(C2)C1C(=O)NCCc1cccc(Cl)c1 (stereo not shown) | 17.2%
COCCN1Cc2cccc(C(=O)NCc3ccccn3)c2C1=O | 14.3%
COc1cc(C2C(C#N)=C(N)N(N(C)C)C3=C2C(=O)CCC3)cc(OC)c1OC (stereo not shown) | 11.1%
COc1ccccc1N1CCN(C(=O)c2cc(-c3cccs3)on2)CC1 | -22.7%
N#C/C(=C\c1ccc(O)c([N+](=O)[O-])c1)C(=O)NCc1ccccc1 | 14.9%
O=C(Nc1cccc(F)c1)C1CCCN(c2cnccn2)C1 (stereo not shown) | 4.24%
COC(=O)c1cc(Nc2cc(C)nc3ncnn23)cc(C(=O)OC)c1 | 5.27%
COc1ccccc1CNC(=O)COC(=O)c1ccccn1 | 6.14%

Structure (SMILES) | hERG current change (%, negative = inhibition) at 10uM
CCC(=O)c1ccc(OCC(=O)OC(C)C(=O)NCc2ccc3c(c2)OCO3)cc1 (stereo not shown) | 12.9%
CCOC(=O)N1CCC(N2C(=O)c3ccccc3C2Nc2ccc(C)cc2)CC1 (stereo not shown) | -32.8%
CC(=O)c1cccc(NC(=O)C2CCN(S(=O)(=O)c3c(C)n[nH]c3C)CC2)c1.Cl | -8.06%
COc1cccc(/C=C2\SC(=O)N(CC(=O)NC3C=CS(=O)(=O)C3)C2=O)c1 (stereo not shown) | 5.26%
COc1ccc(C(=O)NCCSCc2ccccc2)cc1OC | -5.31%
O=C(NCCc1ccc(F)cc1)c1ccc(S(=O)(=O)N2CCCC2)cc1 | -2.05%
CC(C)CCSc1nc2c(c(=O)[nH]c(=O)n2C)n1CCCc1ccccc1 | 6.16%
COc1ccc(NC(=O)c2cccc(N3C(=O)NC4CC3(C)Oc3ccccc34)c2)cc1 (stereo not shown) | -19.5%
Cc1ccc(OCCC(=O)NNC(=O)c2ccccc2F)cc1 | -8.25%
CC1CCCC(NC(=O)C2CCC(CNc3c(N4CCCCC4)c(=O)c3=O)CC2)C1C (stereo not shown) | 6.77%
COc1ccc(-c2cc(C(F)(F)F)n3nc(C(=O)NCCCn4ccnc4)cc3n2)cc1 | -41%
CN1CCCC(OC(=O)c2cc(Br)ccc2Cl)C1.Cl (stereo not shown) | -30.8%
CC(C)Cn1c(SC(C)C(=O)Nc2ccc(N3CCOCC3)cc2)nc2ccccc21 (stereo not shown) | -9.79%
Cc1cc(Nc2ccc(C(=O)O)cc2)nc(N)n1 | 30.5%
CCN(CCC(=O)O)c1ccccc1 | 9.57%
COc1cc2c(cc1OC)-c1n[nH]c(=S)n1C(C)(C)C2 | 1.75%
O=C(Nc1ccccc1N1CCCCC1)c1ccc(F)c(S(=O)(=O)N2CCOCC2)c1 | -20.7%
Cc1nn(Cc2ccc(C(=O)NC3CCCCC3)o2)c(C)c1Br | -34.6%
O=C(Cc1nc(-c2cnccn2)no1)NNC(=O)Nc1ccccc1 | 22%
C[C@]12CC[C@@H]3c4ccc(O)c(O)c4CC[C@H]3[C@@H]1CC[C@@H]2O | 15.4%
CC(C)(C)SCCNC(=O)CSc1ccccc1 | 5.14%
Cc1[nH]c(=O)[nH]c(=O)c1S(=O)(=O)NCCc1ccc(S(N)(=O)=O)cc1 | 13.5%
CCC(C)[C@H](NC(=O)NCc1ccc(Cl)cc1)C(=O)OC (stereo partly shown) | 0.971%

Structure (SMILES) | hERG current change (%, negative = inhibition) at 10uM
Cc1[nH]c2ccccc2c1C(O)c1ccncc1 (stereo not shown) | 17.1%
CCOC(=O)c1c(CN2CCN(C)CC2)oc2ccc(O)cc12 | -38%
COc1ccc(OCC(=O)Nc2ccc(N3CCN(C(=O)c4ccco4)CC3)cc2)cc1 | 0.974%
Cc1ccc(S(=O)(=O)C2(C(=O)N3CCCCCC3)CC2)cc1 | -11.6%
CCOC(=O)N1CCC(N2CCN(c3ccccc3)CC2)CC1.Cl | -21.4%
Cc1ccc(-c2cc(C(F)(F)F)n3ncc(C(=O)N4CCCCC4c4cccnc4)c3n2)cc1 (stereo not shown) | 4.63%
CCc1cc2c(NCCO)ncnc2s1 | 14.3%
COc1ccc(C)cc1NC(=O)C1CCCCC1C(=O)O (stereo not shown) | 14.7%
Cc1cccc(N2CCN(C(=O)c3ccncc3)CC2)c1C | -37%
O=C(Nc1ccc2[nH]c(=O)[nH]c2c1)c1cccc([N+](=O)[O-])c1 | 9.44%
CC(=O)OCc1cc(-c2nc3ccccc3[nH]c2=O)nn1-c1ccc(Cl)cc1 | 18%
COc1ccc(CCNCC(O)COc2ccc(OC)cc2C(C)(C)C)cc1 (stereo not shown) | -38.8%
CN(CC(=O)Nc1ccccc1Br)C(=O)c1cc(S(=O)(=O)N(C)C)ccc1N1CCCC1 | -8.64%
COc1ccc(OCCOC(=O)CNC(=O)c2ccc(Cl)cc2Cl)cc1 | -4.96%
Cn1c(N)c(C(=O)COC(=O)c2cc(C(F)(F)F)nc3ccccc23)c(=O)n(Cc2ccccc2)c1=O | 15.2%
COc1cc(NC2=Nc3cccc4cccc2c34)cc(OC)c1OC | 1.72%
Cc1nc(NCCN2CCOCC2)c2nnn(Cc3c(F)cccc3Cl)c2n1 | -8.32%
CCOc1ccc(CCNS(=O)(=O)c2cccc3nsnc23)cc1OCC | -14.7%
CC[C@]1(c2cccc(C)c2)C(=O)N(C(=O)OC)N1C(=O)OC | -6.61%
CC1CCN(C(=O)COC(=O)Cc2ccc(Br)cc2)CC1 | -23.2%
Cc1cc2nncn2c(Cc2ccccc2)n1 | -7.58%
O=C(CNC(=O)c1ccccc1)N=Nc1c(O)[nH]c2ccc(Br)cc12 | 9.61%
